Assay results reported in the supplement of paper PMC4967469.
IC50 is the fitted dose that halves viability relative to control wells, and lower means more sensitive; a limit (>, <) means that the fit lies beyond the doses tested. AUC sums up the same curve from the lowest dose to the 256-fold higher top dose; values near 1 show little effect. For some assays here: Any top dose called inferred was calculated from the reported fits.

Tests used:
Assay in all cases: Viability of human cancer cell lines after 72 h of drug (GDSC screen)
Phenformin = compound: N=C(N)NC(=N)NCCc1ccccc1 [Phenformin]; settings: top dose 4000 µM; top dose inferred
Protocol: (§1)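 Human cancer cell lines in 384-well plates, medium with 10% serum, drug for 72 h over a 256-fold dose range (nine 2-fold or five 4-fold steps up to the top dose). Adherent lines were fixed and stained with the nucleic acid dye Syto60, suspension lines read with resazurin; signal relative to control wells, capped at 0 and 100%. One two-parameter sigmoid per drug and line, fitted in a mixed model over all curves with the slope shared within a line.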

WHI-P97 = compound: COc1cc2ncnc(Nc3cc(Br)c(O)c(Br)c3)c2cc1OC [WHI-P97]; settings: top dose 10.24 µM; top dose inferred
Protocol: as §1

Erlotinib = compound: C#Cc1cccc(Nc2ncnc3cc(OCCOC)c(OCCOC)cc23)c1 [Erlotinib]; settings: top dose 2 µM
Protocol: as §1

EHT 1864 = compound: O=c1cc(CN2CCOCC2)occ1OCCCCCSc1ccnc2cc(C(F)(F)F)ccc12 [EHT 1864]; settings: top dose 10 µM; top dose inferred
Protocol: as §1

NU-7441 = compound: O=c1cc(N2CCOCC2)oc2c(-c3cccc4c3sc3ccccc34)cccc12 [NU-7441]; settings: top dose 2 µM; top dose inferred
Protocol: as §1

AG-014699 = compound: CNCc1ccc(-c2[nH]c3cc(F)cc4c3c2CCNC4=O)cc1 [AG-014699]; settings: top dose 5 µM; top dose inferred
Protocol: as §1

S-Trityl-L-cysteine = compound: N[C@@H](CSC(c1ccccc1)(c1ccccc1)c1ccccc1)C(=O)O [S-Trityl-L-cysteine]; settings: top dose 5.12 µM; top dose inferred
Protocol: as §1

XL-184 = compound: COc1cc2nccc(Oc3ccc(NC(=O)C4(C(=O)Nc5ccc(F)cc5)CC4)cc3)c2cc1OC [XL-184]; settings: top dose 5.12 µM; top dose inferred
Protocol: as §1

Gefitinib = compound: COc1cc2ncnc(Nc3ccc(F)c(Cl)c3)c2cc1OCCCN1CCOCC1 [Gefitinib]; settings: top dose 0.5 µM
Protocol: as §1

QL-XI-92 = compound: C=CC(=O)Nc1cc(NC(=O)c2ccc(C)c(NC(=O)c3ccno3)c2)cc(C(F)(F)F)c1 [QL-XI-92]; settings: top dose 10.24 µM; top dose inferred
Protocol: as §1

Vinorelbine = compound: CCC1=C[C@@H]2CN(C1)Cc1c([nH]c3ccccc13)[C@@](C(=O)OC)(c1cc3c(cc1OC)N(C)[C@H]1[C@@](O)(C(=O)OC)[C@H](OC(C)=O)[C@]4(CC)C=CCN5CC[C@]31[C@@H]54)C2 [Vinorelbine]; settings: top dose 0.064 µM; top dose inferred
Protocol: as §1

Row | Cell Line | AUC (Phenformin) | IC50 (Phenformin) [µM] | AUC (WHI-P97) | IC50 (WHI-P97) [µM] | AUC (Erlotinib) | IC50 (Erlotinib) [µM] | AUC (EHT 1864) | IC50 (EHT 1864) [µM] | AUC (NU-7441) | IC50 (NU-7441) [µM] | AUC (AG-014699) | IC50 (AG-014699) [µM] | AUC (S-Trityl-L-cysteine) | IC50 (S-Trityl-L-cysteine) [µM] | AUC (XL-184) | IC50 (XL-184) [µM] | AUC (Gefitinib) | IC50 (Gefitinib) [µM] | AUC (QL-XI-92) | IC50 (QL-XI-92) [µM] | AUC (Vinorelbine) | IC50 (Vinorelbine) [µM]
1 | NCI-H345 (small cell lung carcinoma, suspension) | 0.765 | 1530 | 0.99 | > 10.2 | 0.99 | > 2 | 0.983 | > 10 | 0.99 | > 2 | 0.989 | > 5 | 0.91 | > 5.12 | 0.964 | > 5.12 | 0.99 | > 0.5 | 0.976 | > 10.2 | 0.815 | 0.0376
2 | NCI-H720 (lung carcinoid, suspension) | 0.838 | 2390 | 0.989 | > 10.2 | 0.992 | > 2 | 0.985 | > 10 | 0.992 | > 2 | 0.992 | > 5 | 0.991 | > 5.12 | 0.992 | > 5.12 | 0.992 | > 0.5 | 0.992 | > 10.2 | 0.992 | > 0.064
3 | NCI-H1770 (non-small cell lung carcinoma, suspension) | 0.498 | 247 | 0.992 | > 10.2 | 0.992 | > 2 | 0.99 | > 10 | 0.992 | > 2 | 0.992 | > 5 | 0.934 | > 5.12 | 0.966 | > 5.12 | 0.99 | > 0.5 | 0.992 | > 10.2 | 0.556 | 0.00558
4 | NCI-H1836 (small cell lung carcinoma, suspension) | 0.686 | 879 | 0.984 | > 10.2 | 0.969 | > 2 | 0.983 | > 10 | 0.988 | > 2 | 0.988 | > 5 | 0.832 | 3.74 | 0.983 | > 5.12 | 0.985 | > 0.5 | 0.985 | > 10.2 | 0.767 | 0.0262
5 | NCI-H2135 (non-small cell lung carcinoma, adherent) | 0.986 | > 4000 | 0.977 | > 10.2 | 0.99 | > 2 | 0.875 | 9.35 | 0.991 | > 2 | 0.988 | > 5 | 0.941 | > 5.12 | 0.91 | > 5.12 | 0.991 | > 0.5 | 0.923 | > 10.2 | 0.828 | 0.0377
6 | NCI-SNU-1 (stomach, suspension) | 0.77 | 1570 | 0.927 | > 10.2 | 0.932 | > 2 | 0.861 | 8.95 | 0.974 | > 2 | 0.988 | > 5 | 0.93 | > 5.12 | 0.884 | > 5.12 | 0.985 | > 0.5 | 0.932 | > 10.2 | 0.807 | 0.0343
7 | NCI-SNU-5 (stomach, suspension) | 0.748 | 1300 | 0.989 | > 10.2 | 0.987 | > 2 | 0.982 | > 10 | 0.983 | > 2 | 0.944 | > 5 | 0.793 | 2.37 | 0.617 | 0.676 | 0.987 | > 0.5 | 0.989 | > 10.2 | 0.847 | 0.0482
8 | NOMO-1 (acute myeloid leukaemia, suspension) | 0.498 | 246 | 0.897 | > 10.2 | 0.98 | > 2 | 0.942 | > 10 | 0.836 | 1.6 | 0.961 | > 5 | 0.725 | 1.54 | 0.82 | 3.48 | 0.927 | > 0.5 | 0.937 | > 10.2 | 0.663 | 0.0122
9 | OCI-M1 (acute myeloid leukaemia, suspension) | 0.36 | 114 | 0.966 | > 10.2 | 0.995 | > 2 | 0.957 | > 10 | 0.988 | > 2 | 0.994 | > 5 | 0.729 | 1.18 | 0.975 | > 5.12 | 0.994 | > 0.5 | 0.875 | 6.17 | 0.759 | 0.0177
10 | OCUB-M (breast, adherent) | 0.181 | 33.1 | 0.976 | > 10.2 | 0.99 | > 2 | 0.805 | 4.25 | 0.989 | > 2 | 0.968 | > 5 | 0.643 | 0.748 | 0.945 | > 5.12 | 0.978 | > 0.5 | 0.787 | 3.82 | 0.421 | 0.0025
11 | OPM-2 (myeloma, suspension) | 0.874 | 2710 | 0.96 | > 10.2 | 0.993 | > 2 | 0.93 | > 10 | 0.994 | > 2 | 0.994 | > 5 | 0.781 | 1.73 | 0.936 | > 5.12 | 0.994 | > 0.5 | 0.946 | > 10.2 | 0.556 | 0.00552
